“And” between values parts separate entries of the source, which are not always exact repeats. Equal entries are not always repeated. The campaign covered roughly 110,000 compounds. About 230 (0.21%) showed an effect of 50% or more. This is one part of the list.
target: DPAP1 (Plasmodium falciparum, UniProt Q8IIJ9); test: primary screen, percent inhibition; read by cleavage of a fluorogenic dipeptide substrate; higher = more effect of the substance; parameters: species or system P. falciparum D10 trophozoite lysates; single well
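Further: 30 min substrate incubation versus DMSO and 10 µM JCP410 controls.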

DPAP1, sequence (Q8IIJ9 whole entry, looked up): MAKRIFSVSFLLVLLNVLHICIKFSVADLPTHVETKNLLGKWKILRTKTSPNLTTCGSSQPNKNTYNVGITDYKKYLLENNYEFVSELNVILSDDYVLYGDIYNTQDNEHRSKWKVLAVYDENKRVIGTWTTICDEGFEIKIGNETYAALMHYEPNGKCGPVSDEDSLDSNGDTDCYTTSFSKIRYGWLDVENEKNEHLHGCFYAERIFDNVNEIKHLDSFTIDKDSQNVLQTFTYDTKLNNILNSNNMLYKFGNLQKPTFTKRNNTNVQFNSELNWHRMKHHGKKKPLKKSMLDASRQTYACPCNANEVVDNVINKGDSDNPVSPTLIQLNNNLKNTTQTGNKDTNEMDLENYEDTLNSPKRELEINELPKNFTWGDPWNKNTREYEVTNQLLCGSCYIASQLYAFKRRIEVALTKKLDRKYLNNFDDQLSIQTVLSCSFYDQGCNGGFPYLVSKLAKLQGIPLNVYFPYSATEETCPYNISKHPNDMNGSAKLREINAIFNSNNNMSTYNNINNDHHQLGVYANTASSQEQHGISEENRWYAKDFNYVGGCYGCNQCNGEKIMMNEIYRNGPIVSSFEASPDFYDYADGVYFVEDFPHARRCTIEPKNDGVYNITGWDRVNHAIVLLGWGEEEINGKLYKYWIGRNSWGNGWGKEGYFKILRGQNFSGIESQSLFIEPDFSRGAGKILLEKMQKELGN

Compound	% Inhibition @ 10 uM
COc1ccc2c(c1)c1ncn(CCc3ccc(Cl)cc3)c(=O)c1n2C	-5.36%
O=C(O)c1ccc(S(=O)(=O)c2ccc(O)cc2)cc1	-9.31%
O=C1NC(=O)/C(=C/c2cccc(Br)c2)S1	3.9%
CCN1CCN(C(=O)/C(=C/c2cccs2)NC(=O)c2ccc(C)c(C)c2)CC1	2.26%
COc1ccccc1C1CC(c2ccc(C(C)C)cc2)Nc2ncnn21 (stereo not drawn)	-3.23%
CCOC(=O)c1[nH]c(C)c(C(=O)NCCc2sccc2C)c1C	0.655%
O=C(COc1ccc2ccccc2c1Br)N1CCOCC1	6.19%
CC1(O)N(CCCCCCN2C(=O)OC3(CCCCC3)C2(C)O)C(=O)OC12CCCCC2 (stereo not drawn)	-3.19%
C=CCNC(=O)c1cccc2c1-c1ccccc1C2=O	6.73%
CCOC(=O)C1CCN(Cc2ccc(C)cc2C)CC1	1.63%
Cc1ccc(C(=O)N(Cc2ccccc2)Cc2ccccc2)o1	1.07%
Cc1ccc(C)n1-c1nnc(N2CCCC(C(=O)NCCCOC(C)C)C2)s1 (stereo not drawn)	2.65%
Cc1c(C(=O)NC(C)c2ccccc2)sc2ncnc(N3CCN(c4ccccn4)CC3)c12 (stereo not drawn)	-1.46%
CC1CCCN(S(=O)(=O)c2ccc(Cl)c([N+](=O)[O-])c2)C1 (stereo not drawn)	2.46%
Cc1ccc(CNC(=O)c2nc(-c3ccncc3)no2)cc1	-1.67%
O=C(O)c1cccc(/C=c2\sc3nc4ccccc4n3c2=O)c1	0.193%
Cc1nnc2sc(COc3ccccc3)nn12	-8.53%
Cn1nnc2c(NCc3nc4ccccc4n3C)nc(Cc3ccc(Cl)cc3Cl)nc21	3.51%
CCOCCCNC(=O)C1=C(C)C(=O)OC12CCN(CC)CC2	2.87%
CC1=C(C#N)C(c2ccccc2OC(C)C)C2=C(O)CC(c3ccccc3)CC2=N1 (stereo not drawn)	0.726%
CCN1CCC(N2CCN(c3ccc(F)cc3)CC2)CC1	1.26%
COc1cc(C2C(C#N)=C(N)N(c3c(F)cccc3F)C3=C2C(=O)CCC3)ccc1O (stereo not drawn)	-7.3%
Cc1coc2cc3oc(=O)c(CCC(=O)NCCc4ccccc4)c(C)c3cc12	-4.39%
O=C(c1ccc(F)cc1)N1CCN(c2cccc(Cl)c2)CC1	0.177%
COc1ccc(Cl)cc1N(CC(=O)Nc1ccc(Br)cc1)S(C)(=O)=O	-5.13%

Compound	% Inhibition @ 10 uM
Cc1cccc(OCCn2c(CCCO)nc3ccccc32)c1	-2.05%
CC1=Nc2nc3ccccc3n2C(c2ccco2)/C1=C(/O)OCc1ccccc1 (stereo not drawn)	-8.02%
O=C(CC(NCCN1CCOCC1)C(=O)O)Nc1ccc(Cl)cc1 (stereo not drawn)	-2.98%
O=C(CSc1ncnc2c1sc1nc(N3CCOCC3)c3c(c12)CCCC3)N1CCCCC1	-1.82%
COC(=O)C1=CN(CC23CC4CC(CC(C4)C2)C3)C=C(C(=O)OC)C1c1ccc(O)c(OC)c1	-4.35%
CCc1c(C)sc(NC(=O)c2cnccn2)c1C#N	7.1%
CCN1CCN(C(=O)CCCN2C(=O)c3ccccc3Sc3ncccc32)CC1	-3.86%
CCOc1ccc(/C=C2/N=C(c3c(-c4ccccc4)noc3C)OC2=O)cc1	4.38%
Cc1nnc2sc(NC(=O)C3CCCCC3)nn12	-3.1%
CC(C)NC(=O)c1ccc(CS(=O)c2ccccc2Cl)o1 (stereo not drawn)	-0.434%
Cn1c(=O)c2c(nc(CN3CCc4ccccc4C3)n2Cc2c(F)cccc2Cl)n(C)c1=O	-2.29%
CN1CCc2nc(SCc3cccc(Br)c3)c(C#N)cc2C1	-4.28%
COc1ccccc1CNC(=O)Cn1cnc2c(nc3n2CCCCC3)c1=O	0.244%
CN1CCC(N(C)C/C=C/c2ccccc2)CC1	2.91%
O=c1oc2ccccc2cc1-c1cnc(-c2ccccc2)o1	2.4%
Cc1nn(-c2cc(Oc3ccccc3)ncn2)c(N)c1C(N)=O	2.64%
CCCOc1cccc(C2c3c(oc4ccccc4c3=O)C(=O)N2c2nc(C)c(C(=O)OC)s2)c1 (stereo not drawn)	-2.92%
COc1cccc(-c2cc(C(=O)Nc3cc(C)on3)c3ccccc3n2)c1	0.331%
N#CC1=C(N)Nc2oc(-c3ccccc3)nc2C1c1ccccc1 (stereo not drawn)	-2.8%
Cc1onc(-c2c(Cl)cccc2Cl)c1C(=O)NC(C)C	-7.09%
CCc1ccc(CNCc2c(C(=O)O)c(C)n(Cc3cccc(Cl)c3)c2C)cc1	-0.23%
CCc1c(C)nc2nncn2c1NCc1ccc(F)cc1	-0.808%
Cc1ccc(C)c(Cn2c(C(=O)O)c(CNCC(C)c3ccccc3)c3ccccc32)c1 (stereo not drawn)	-3.21%
COc1ccc(C(=O)NC2(C(F)(F)F)NC(=O)N(Cc3ccco3)C2=O)cc1OC (stereo not drawn)	-3.33%
c1ccc(CN2CCC(NC3CCC(c4ccccc4)CC3)CC2)cc1 (stereo not drawn)	-5.44%

Compound	% Inhibition @ 10 uM
CCOC(=O)c1cn2nc(-c3ccc(OC)c(OC)c3)cc2nc1C	3.62%
CCOC(=O)N1CCC(NC(c2ccccc2)c2ccc(Cl)cc2)CC1 (stereo not drawn)	-3.6%
O=c1oc2cc(O)ccc2cc1-c1csc(-c2ccc(Br)cc2)n1	4.81%
O=C(CCCC(=O)c1ccccc1)NC(c1ccccc1)c1ccccc1	-1.46%
COc1ccc(-c2cc(OC(=O)/C=C/c3ccccc3)c3c(C)oc(C)c3c(=O)c2)cc1	0.778%
COc1ccc2[nH]c(SCc3cnc(C)nc3N)nc2c1	-1.72%
COc1ccc(NCN2C(=O)C3CCC(C)CC3C2=O)cc1 (stereo not drawn)	-11.7%
COc1ccc(-c2nc3ccccc3n2C(=O)c2ccccc2C(=O)O)cc1OC	-3.64%
COc1ccc(C(=O)C2=C(O)C(=O)N(CCc3ccccc3)C2c2cccc(F)c2)cc1 (stereo not drawn)	9.19%
O=c1ccc(-c2ccccc2)nn1Cc1cc(=O)n2ccccc2n1	-2.71%
C=CCn1c(N)cc(=O)nc1SCC(=O)Nc1ccc(Cl)cn1	-4.68%
Oc1c(/C=N/CCN2CCOCC2)c(C(F)(F)F)nn1-c1nc2ccccc2s1	-2.26%
C=CCSc1nc2sc3c(c2c(=O)n1-c1ccccc1)CCN(C)C3	1.4%
CCCN(CCC)S(=O)(=O)c1ccc(C(=O)NCCOc2ccccc2Cl)cc1	4.42%
CC(C)c1ccc(NC(=O)CN(C)S(=O)(=O)c2cc(Cl)ccc2Cl)cc1	5.66%
COc1ccc(CN2CCN(C)CC2)cc1OC	1.28%
Cc1ccc(CCNC(=O)Cn2cc3c(n2)CCCC3)cc1	0.137%
COc1ccc(NC(=O)CN(c2ccc(C)c(Cl)c2)S(C)(=O)=O)c(OC)c1	0.189%
COc1ccc(/C=C/C(=O)NCc2ccc(Cl)cc2Cl)cc1	3.44%
O=C(O)c1nn(-c2ccccc2)nc1-c1nn(-c2ccccc2)nc1C(=O)O	7.56%
O=C(CSc1ncnc2sc(-c3ccccc3)cc12)NCCc1ccccc1	1.84%
c1ccc(CC2CCN(Cc3ccncc3)CC2)cc1	0.472%
CC1=C(c2ccc(C(C)C)cc2)S(=O)(=O)N=C1Nc1cccnc1	0.413%
CCc1ccc2nc(NC3=NCN(C4CCCCC4)CN3)nc(C)c2c1	2.1%
CCOc1ccccc1N(CC(=O)NC(C)(C)C)S(=O)(=O)c1ccc(Cl)cc1	-8.2%

Compound	% Inhibition @ 10 uM
CCOC(=O)c1cnc2c(C)cccc2c1O	-12.1%
O=C1NC(=O)C(=Cc2coc3ccccc3c2=O)C(=O)N1	-9.6%
CCCCC/N=C/C1=C(O)CC(c2ccccc2)CC1=O (stereo not drawn)	-0.142%
C=CCCCC(=O)Nc1cc(OC)nc(OC)n1	-2.02%
Nc1nc2nc(-c3ccc(OCc4ccccc4)cc3)cc(C(F)(F)F)n2n1	-1.69%
Cc1ccc(CN(C)CCc2ccccc2)o1	0.0792%
CC(C)(C)NC(=O)Cn1c(=O)n(CC(=O)NC(C)(C)C)c2ccccc21	0.13%
CCCCc1ccc(-c2nc(-c3ccc(Br)cc3)no2)cc1	-4.31%
CS(=O)(=O)c1nc(-c2ccc(F)cc2)cc(C(F)(F)F)n1	3.34%
Cc1cc(C(F)(F)F)nc2sc(C(=O)Nc3ccc(F)cc3)c(N)c12	-1.02%
O=C1CC(c2ccc(Cl)c(Cl)c2)C2=C(CC(c3ccccc3Cl)CC2=O)N1 (stereo not drawn)	4.78%
COc1cccc(CSc2nc3cccnc3[nH]2)c1	2.72%
CSc1nc(-c2ccccc2)nc(NC(C)=O)c1C(C)=O	3.62% and -2.29%
CCC[C@@H](NC(=O)C(CC(C)C)c1cccc(-c2ccc(N3CCNCC3)cc2)c1)C(=O)c1nnc(-c2ccc(OC)cc2)o1 (stereo partly drawn)	-1.41%
C=CCNC(=O)C(=O)NCc1ccccn1	-2.18%
Cc1c(Cc2ccccc2)sc(NC(=O)c2ccccc2)c1C(N)=O	3.84%
CCOc1ccc(N(CC(=O)N2CCCCC2)S(=O)(=O)c2ccc(C)cc2)cc1	-0.496%
CC1(C)Cc2c(sc3ncn4nc(-c5ccccc5)nc4c23)C(C)(C)N1	-2.26%
Cc1ccc(CCNS(=O)(=O)c2ccc(-n3cccn3)cc2)cc1	-4.27%
CS(=O)(=O)N(CC(=O)N1CCCCC1)c1ccccc1F	-1.59%
O=C(NCc1nc2ccccc2n1CCCCOc1ccccc1)c1ccccc1	-1.15%
COc1ccc(Br)cc1C1C(C#N)=C(N)Oc2cc(C)oc(=O)c21 (stereo not drawn)	0.317%
O=C(Cn1cc(C(=O)c2ccccc2)c2ccccc21)NCC1CCCO1 (stereo not drawn)	-3.64%
COc1cc(C2NC(=O)NC(C)=C2C(=O)OCCOc2ccccc2)ccc1O (stereo not drawn)	-4.77%
